Measured values as given in patent US20190375823A1 (Zymeworks, published 2019).

T1: CD19 on Raji B cells (UniProt P15391 20-556, limits assumed)
T1 construct: whole, on cells; also called Raji CD19 B cells
T1 sequence (looked up): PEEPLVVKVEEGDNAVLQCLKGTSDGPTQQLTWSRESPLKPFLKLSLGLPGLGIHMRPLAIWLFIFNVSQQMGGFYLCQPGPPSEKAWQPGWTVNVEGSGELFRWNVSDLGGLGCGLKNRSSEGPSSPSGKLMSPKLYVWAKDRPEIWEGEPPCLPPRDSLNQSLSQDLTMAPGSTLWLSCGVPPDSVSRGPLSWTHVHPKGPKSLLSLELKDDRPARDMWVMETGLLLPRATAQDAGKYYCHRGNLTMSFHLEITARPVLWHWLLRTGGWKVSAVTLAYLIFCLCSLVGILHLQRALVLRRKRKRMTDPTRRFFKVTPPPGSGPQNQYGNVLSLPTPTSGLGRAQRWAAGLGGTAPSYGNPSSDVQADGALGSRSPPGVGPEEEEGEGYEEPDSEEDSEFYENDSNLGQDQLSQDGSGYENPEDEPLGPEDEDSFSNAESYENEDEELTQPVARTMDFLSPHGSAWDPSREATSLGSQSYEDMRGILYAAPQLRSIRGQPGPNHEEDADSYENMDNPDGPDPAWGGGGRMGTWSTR


Columns and labels:
[1] = target: T1, CD19 on Raji B cells; test: FACS on Raji cells (CD19)
[2] = target: the molecule itself; test: LC/MS of AlbuPure-purified AlbuCORE-1

| Binder | Kd [1] [µM] | binding result [2] |
| --- | --- | --- |
| v1092: AlbuCORE_1 (ABH2) with the antiCD3 warhead at the N terminus of fragment 1 and the antiCD19 warhead at the C terminus of fragment 2 (bispecific antibody, scFvs adopted from blinatumomab; also called anti-CD3xCD19 albumin-based heteromultimer) chain 1: not shown chain 2: SVVLLLRLAKTYETTLEKCCAAADPHECYAKVFDEFKPL[about 200 residues skipped]GGSGDIQLTQSPASLAVSLGQRATISCKASQSVDYDGDSYLNWYQQIPGQPPKLLIYDASNLVSGIPPRFSGSGSGTDFTLNIHPVEKVDAATYHCQQSTEDPWTFGGGTKLEIKGGGGSGGGGSGGGGSQVQLQQSGAELVRPGSSVKISCKASGYAFSSYWMNWVKQRPGQGLEWIGQIWPGDGDTNYNGKFKGKATLTADESSSTAYMQLSSLASEDSAVYFCARRETTTVGRYYYAMDYWGQGTTVTVSS | 0.107 | – |
| Albumin based Transporter polypeptide 2-Ver 2 (ABH2 fragment B, albumin 342:585) (other, Other half of ABH2; also called F2; AlbuCORE-1 fragment B) not shown | – | no binding |
